Laboratory results reported in PubChem BioAssay AID588689 (Southern Research Specialized Biocontainment Screening …, 2011).
About 1,000 (0.29%) of roughly 340,000 compounds were called active. Inconclusive results, whose numbers are uncertain, are shown with a selection of clear calls. Cut-off read from the data, not from the text of the source: inconclusive = inhibition above about 29% without an active follow-up result; inactive = below that.

biological target: Genome polyprotein (Dengue virus type 2 (strain 16681-PDK53)) (UniProt P29991); assay: Dengue-2 NS5 methyltransferase inhibitors, primary screen, biochemical, confirmation dose response (AID 588689); details: Dengue-2 NS5 methyltransferase capping enzyme assay, at 25 µM, active compounds read high

SMILES | inhibition
Cc1ccc(C(=O)Nc2ccccc2C(=O)O)cc1S(=O)(=O)Nc1ccccc1 | inactive: 3.97%
COc1ccccc1NS(=O)(=O)c1cccs1 | inactive: 0%
O=C(c1cc(-c2ccncc2)nc2ccc(Cl)cc12)N1CCN(C(=O)C2CCCO2)CC1 (configuration not stated) | inactive: -1.35%
Cc1noc(/C=C/c2ccc(-c3ccccc3Cl)o2)c1[N+](=O)[O-] | inconclusive: 47.2%
Cc1cc[n+](-c2ccccc2)c2ccccc12 | inactive: -10.7%
Cc1c(CN2CCCCC2)c(O)n(CCO)c(=O)c1C#N | inconclusive: 45.7%
CCc1cccc(CC)c1N1C(=O)C2=C(SCCCS2)C1=O | inconclusive: 79.3%
COc1ccc(/C=C2/SC(=S)N(NS(=O)(=O)c3ccccc3)C2=O)cc1 | inactive: 21.2%
Cc1ccc(S(=O)(=O)/N=C2/NC(=O)/C(=C\c3cc(Br)cc(Br)c3O)S2)cc1 | inconclusive: 174%
CC[N+](CC)(CC)CCOc1cccc(OCC[N+](CC)(CC)CC)c1OCC[N+](CC)(CC)CC | inconclusive: 50.1%
Nc1[nH]c2cc([N+](=O)[O-])ccc2c1-c1ccccn1 | inconclusive: 41.8%
N#CC(C#N)=C1C=C2C=C(N3CCCCCC3)CCC2CC1 (configuration not stated) | inconclusive: 178%
CC1=Nc2ccccc2/C1=C\c1nc(-c2ccc(F)cc2)oc1O | inconclusive: 84.4%
Nc1ncn(C(=S)Nc2ccccc2)n1 | inactive: 5.4%
Nc1ccccc1-c1nnc(SCc2ccccc2F)[nH]c1=O | inactive: 2.71%
COc1ccc(NC(=O)Cc2ccc(Cl)cc2Cl)cn1 | inactive: -4.71%
O=C(O)/C(=C\c1ccccc1)c1ccccc1 | inactive: -3.95%
O=C1C(Cl)=C(Nc2ccc(O)cc2)C(=O)c2ccccc21 | inactive: 27.1%
CC(=O)Nc1ccccc1NS(=O)(=O)c1ccc(Cl)cc1 | inactive: -10.2%
NC(=O)C[n+]1cccc2ccccc21 | inconclusive: 56.1%
COc1cccc2c1C(=O)c1c(O)c3c(c(O)c1C2=O)CC(O)(C(C)=O)CC3OC1CC(O)C(O)C(C)O1 (configuration not stated) | inconclusive: 41.8%
CCCNC(=O)Cn1c(=O)/c(=C/c2ccc(-c3ccc([N+](=O)[O-])cc3)o2)s/c1=C\C(=O)C(C)(C)C | inconclusive: 42.9%

SMILES | inhibition
Cc1ccccc1NC(=O)Cn1nnc(S(=O)(=O)c2ccc(C(C)(C)C)cc2)c1N | inactive: -3.62%
C/C(=N/NC(=O)Cc1ccccc1)c1ccc(C)s1 | inactive: 5.19%
CC1(C)CC(=O)C(C(C2=C(O)CC(C)(C)CC2=O)c2cccc(O)c2)C(=O)C1 (configuration not stated) | inactive: 0.68%
CCOC(=O)C1C(C#N)=C(N)OC(C)=C1c1ccncc1 (configuration not stated) | inconclusive: 29.3%
CCN1C/C(=C/c2cccs2)c2nc3ccccc3c(C(=O)O)c2C1 | inconclusive: 32.4%
C/C(=N/N=C(\C)c1ccccc1O)c1ccccc1O | inconclusive: 81.1%
CC(C)(C)C(=O)/C=c1\s/c(=C\c2ccc(-c3ccc([N+](=O)[O-])cc3)o2)c(=O)n1CC(=O)NC(N)=O | inconclusive: 157%
O=c1c2ccccc2[nH]c2ccc(O)cc12 | inconclusive: 30.8%
CCOC(=O)N1CCC(Nc2c(-c3ccc(C)c(C)c3)c(=O)c2=O)CC1 | inactive: -8.18%
Cc1cc(-c2ccco2)c(C#N)c2nc3ccccc3n12 | inconclusive: 39.4%
O=C(NCc1ccc(F)cc1)c1cccc2c1C(=O)c1ccc(N3CCC(Cc4ccccc4)CC3)cc1S2(=O)=O | inconclusive: 168%
COc1cccc2c1C(=O)c1c(O)c3c(c(O)c1C2=O)CC(O)(C(=O)CO)CC3OC1CC(N(C)C)C(O)C(C)O1 (configuration not stated) | inconclusive: 41.8%
CCC(C)(C)NC(=O)CN(Cc1cccs1)C(=O)CNS(=O)(=O)c1ccc(C)cc1 | inconclusive: 152%
COc1ccc(C(=O)/C=C/c2ccc(N(C)C)cc2)c(OC)c1 | inconclusive: 43.6%
CCOc1ccc(Br)cc1S(=O)(=O)Nc1cccc(S(=O)(=O)Nc2ccccc2C(=O)O)c1 | inactive: 11.4%
Cc1ccc(S(=O)(=O)N2[C@@H](c3ccc(C(C)(C)C)cc3)C(C(=O)O)=CC[C@H]2c2ccc(C(C)C)cc2)cc1 | inactive: -2.65%
C=CCn1c(SCC(=O)c2[nH]c(C)c(C(=O)OCC)c2C)nc2scc(-c3ccccc3)c2c1=O | inactive: 0.73%
Cc1ccc(C2NC(=S)N3C(c4ccc(C)cc4)NC(=S)N23)cc1 (configuration not stated) | inactive: -0.57%
O=C(Nc1ccccc1)c1nn(-c2ccccc2)c(=O)cc1C(F)(F)F | inconclusive: 38.2%
Cn1c(=O)c(N)c2c3c(c(Br)ccc31)C(=O)c1ccccc1-2 | inconclusive: 79.7%
Cc1cc(=O)oc2c(O)c(O)ccc12 | inactive: 0.73%
COC(=O)c1c(-c2ccc(C)cc2)csc1NC(=O)C1CC=CCC1C(=O)O (configuration not stated) | inactive: 0%

SMILES | inhibition
NC(=O)c1ccc(NCCCN2CCOCC2)c([N+](=O)[O-])c1 | inactive: -4.51%
CCCCNC(=O)CN(Cc1ccco1)S(=O)(=O)c1ccc(C(C)=O)cc1 | inactive: -2.95%
O=C(O)CCN1C(=O)/C(=C\c2cccc(OCc3ccccc3)c2)SC1=S | inactive: 40.6%
COc1ccc(-c2noc(-c3ccccc3C(=O)NCc3ccco3)n2)cc1OC | inactive: -1.61%
N#CC12COC3(CCCCC3C1(C#N)C#N)OC2=N (configuration not stated) | inconclusive: 70.4%
Cn1c(O)c(/C=N/NC(=O)c2cc3ccccc3cc2O)c2ccccc21 | inconclusive: 33.4%
COc1ccc2c3c(cccc13)C(=O)CC2 | inconclusive: 173%
CCCOc1ccc(/C=C2/C(=O)ON=C2C)cc1Cl | inactive: 12.4%
O=C(O)c1cccc(NS(=O)(=O)c2ccc3c(c2)C(=O)c2ccccc2C3=O)c1 | inactive: 16.2%
CCN(CC)c1ccc(C(=C2C=CC(=[N+](CC)CC)C=C2)c2ccc(N(CC)CC)cc2)cc1 | inactive: 17%
CCOC(=O)[C@H]1[C@H]2COc3ccc(Br)cc3[C@H]2N2C(=O)CN(Cc3ccc(C)cc3)C(=O)[C@@]12C | inconclusive: 40%
O=C(CCN1C(=O)/C(=C/c2ccccc2Cl)SC1=S)NN1CCOCC1 | inconclusive: 38.3%
COc1ccc(S(=O)(=O)NCC2CCCO2)cc1NC(=O)c1ccc(Cl)cc1 (configuration not stated) | inactive: -0.72%
CCN(CC(=O)NCc1cccs1)C(=O)CCC(=O)c1ccc(C)cc1 | inactive: -8.12%
CCOC(=O)N1CCC(N2C(=O)c3ccc(C(=O)NCCC(C)C)cc3C2=O)CC1 | inactive: -0.65%
O=C(/C=C\Nc1ccc(S(=O)(=O)Nc2ncccn2)cc1)c1cccc2ccccc12 | inconclusive: 37.4%
NS(=O)(=O)c1ccc(CCNC(=O)Nc2ccc(Cl)c(Cl)c2)cc1 | inactive: -1.37%
CC(=O)c1cccc(NC(=O)C2CCCN(S(=O)(=O)c3cccc4nonc34)C2)c1 (configuration not stated) | inconclusive: 30.8%
N=c1oc2c3c4c(cc2cc1C(=O)Nc1ccccc1)CCCN4CCC3 | inconclusive: 162%
COc1ccc(NC(=O)CN(C)C(=O)c2cccc(S(=O)(=O)N3CCN(C)CC3)c2)cc1 | inactive: -5.07%
CC(C)(Oc1ccc(Cl)cc1)C(=O)Nc1ccc2oc(-c3ccncc3)nc2c1 | inactive: 2.08%
CCCCN(C)C1=CC2=CC(=C(C#N)C#N)CCC2CC1 (configuration not stated) | inconclusive: 185%

SMILES | inhibition
C#CCN(C[C@H]1[C@H](OC(=O)Nc2cccs2)[C@H](OC(=O)Nc2cccs2)C[C@H]2C(=O)N(c3ccccc3)C(=O)[C@@H]12)S(=O)(=O)c1ccc(C)cc1 | inactive: 2.32%
Cc1ccc(CNC(=O)C2CCC(=O)N2C(C)C)cc1 (configuration not stated) | inactive: -1.99%
CCOc1cc(C2C(C#N)=C(N)OC(C)=C2C(C)=O)cc(Br)c1O (configuration not stated) | inconclusive: 28.5%
CC1=CC2=C(OC1N(C)C)c1cccc3cccc(c13)C2=O (configuration not stated) | inconclusive: 65%
N#CCC(=O)N/N=C/c1ccc(OS(=O)(=O)c2ccccc2)cc1 | inactive: -3.76%
O=C(CCCOc1cccc(Br)c1)NCCOc1ccccc1 | inactive: -4.07%
CC1(C)CC(=O)C(C(C2=C(O)CC(C)(C)CC2=O)c2ccco2)C(=O)C1 (configuration not stated) | inactive: -52.5%
C/C=N\NC(=O)CNC(=O)CNC(=O)c1ccccc1 | inactive: -9.83%
O=C(CC1SCCNC1=O)Nc1ccccc1Cl (configuration not stated) | inactive: 0%
COc1ccc(/C=C2/C(=O)ON=C2C)cc1Br | inactive: 17.8%
CCOc1cc(/C=C2\NC(=O)NC2=O)cc([N+](=O)[O-])c1O | inactive: 71.9%
COc1ccc(CC2=CC(=O)c3ccccc3C2=O)cc1 | inconclusive: 50.8%
Cc1ccc(C(=O)N2CCCN(c3nc4cc5c(cc4cc3C#N)OCO5)CC2)cc1 | inconclusive: 34.7%
O=C1/C(=C\c2cc(Br)cc(Br)c2O)SC(=S)N1Cc1ccccc1 | inconclusive: 32.3%
CC(=O)Oc1ccc2c(c1)Oc1cc(OC(C)=O)ccc1C21OC(=O)c2ccccc21 | inconclusive: 152%
O=C(Nc1ccccc1C(=O)O)c1ccccc1 | inactive: -0.69%
Cc1cccc[n+]1C1C(c2ccccc2)C(C#N)=C(C(=C=[N-])C#N)NC1(O)C1CC1 (configuration not stated) | inconclusive: 47.6%
CN(C=[N+](C)C)c1cccc2c1C(=O)c1ccccc1C2=O | inconclusive: 31.3%
CC/C(C)=N/Nc1nc2sc3c(c2c(=O)[nH]1)CC(C)(C)OC3 | inconclusive: 31.9%
COC(=O)C1=C(C)OC(N)=C(C#N)C1c1cccnc1 (configuration not stated) | inconclusive: 40.4%
CCOC(=O)c1cc2n(c1N)-c1ccccc1C2=O | inconclusive: 97.9%
